Data as given in article PMC4336329 (PLoS ONE, 2015).
Screen size: about 310,000 compounds; about 2,200 (0.71%) showed an effect of 50% or more. Effects have a minus sign here. This is one part of the list.

target: human ether-à-go-go-related gene (hERG) potassium channel (human, UniProt Q12809); test: primary screen, population patch clamp on CHO cells stably expressing hERG
Sequence (Q12809 whole entry, looked up): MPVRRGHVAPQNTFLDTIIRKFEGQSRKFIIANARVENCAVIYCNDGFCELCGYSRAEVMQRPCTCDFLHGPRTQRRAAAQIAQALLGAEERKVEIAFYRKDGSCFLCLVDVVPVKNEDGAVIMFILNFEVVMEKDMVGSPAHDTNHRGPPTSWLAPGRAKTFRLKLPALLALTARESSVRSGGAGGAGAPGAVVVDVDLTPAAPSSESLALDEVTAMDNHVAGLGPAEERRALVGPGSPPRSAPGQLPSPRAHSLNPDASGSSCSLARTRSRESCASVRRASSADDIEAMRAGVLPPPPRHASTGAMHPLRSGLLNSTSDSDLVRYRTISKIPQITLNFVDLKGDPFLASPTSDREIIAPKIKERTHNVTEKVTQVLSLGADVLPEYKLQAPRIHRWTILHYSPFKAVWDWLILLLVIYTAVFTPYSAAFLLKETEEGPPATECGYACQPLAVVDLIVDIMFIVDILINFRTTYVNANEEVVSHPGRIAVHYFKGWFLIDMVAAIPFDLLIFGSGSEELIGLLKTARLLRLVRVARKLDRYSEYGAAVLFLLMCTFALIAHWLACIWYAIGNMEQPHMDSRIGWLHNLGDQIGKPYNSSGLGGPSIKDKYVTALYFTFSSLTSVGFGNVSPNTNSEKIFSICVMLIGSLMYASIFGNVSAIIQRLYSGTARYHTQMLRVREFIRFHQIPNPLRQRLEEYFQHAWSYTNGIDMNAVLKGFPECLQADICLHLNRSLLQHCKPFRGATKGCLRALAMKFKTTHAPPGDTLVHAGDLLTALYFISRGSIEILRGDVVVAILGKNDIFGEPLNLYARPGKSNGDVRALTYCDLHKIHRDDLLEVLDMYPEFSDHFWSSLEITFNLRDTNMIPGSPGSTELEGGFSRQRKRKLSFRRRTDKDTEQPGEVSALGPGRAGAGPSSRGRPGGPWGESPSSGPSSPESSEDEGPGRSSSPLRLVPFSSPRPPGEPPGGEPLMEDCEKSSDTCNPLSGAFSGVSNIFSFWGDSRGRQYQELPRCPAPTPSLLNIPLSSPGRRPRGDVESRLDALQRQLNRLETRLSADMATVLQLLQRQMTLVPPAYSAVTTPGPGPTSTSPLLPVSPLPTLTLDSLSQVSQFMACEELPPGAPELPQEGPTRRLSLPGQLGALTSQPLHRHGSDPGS

| SMILES | hERG current change (%, negative = inhibition) at 1uM |
| --- | --- |
| CC1(C)Oc2ccc(C(=O)N3CCCC3)cc2N(CC(=O)NCc2ccccc2)C1=O | 2.22% |
| COc1ccc(-c2csc3nc(-c4ccccc4OC)oc(=O)c23)cc1 | 0.113% |
| Cc1ccc(S(=O)(=O)N(C)C)cc1NC(=O)COC(=O)Cc1cccs1 | -40.1% |
| Cc1ccn2cc(C34CC5CC(CC(C5)C3)C4)nc2c1 | -5.66% |
| CCc1ccc(-n2c(C)cc(/C=N/NC(=O)OC)c2C)cc1 | 12.1% |
| CC(C)CN1CCN(Cc2nc(C(C)C)cs2)CC1CCO (stereo not shown) | 5.5% |
| O=C(CC1(CC2=NS(=O)(=O)c3ccccc3N2)CCCC1)NCCc1ccccc1 | -0.58% |
| CC1Cc2ccccc2N1C(=O)CSc1nnc(N)s1 (stereo not shown) | 12.2% |
| N#C/C(=C/c1cn(-c2ccccc2)nc1-c1cccc(OCc2ccccc2)c1)C(=O)NCCCn1ccnc1 | 3.73% |
| COc1ccc2[nH]c(=O)c(C(c3nnnn3C(C)(C)C)N(Cc3ccco3)CC3CCCO3)cc2c1 (stereo not shown) | 0.906% |
| COc1ccc(Cc2nnc(SCC(=O)Nc3c(C)cccc3C)[nH]c2=O)cc1 | 8.89% |
| CCN(CC)CC(=O)Nc1sc(C)cc1C(=O)c1ccccc1 | 7.2% |
| CN(c1ccc([N+](=O)[O-])cc1/C=N/NC(=O)COc1ccccc1)C1CCCCC1 | 4.96% |
| O=C(COc1ccccc1)Nc1ncccn1 | 0.695% |
| CCOC(=O)C1(CCOc2ccccc2)CCN(Cc2cccc(O)c2)CC1 | -28.7% |
| CC1CC(=O)N(CC(=O)Nc2ccccc2F)c2ccccc2S1(=O)=O (stereo not shown) | 9.74% |
| CCOc1ccc(CC(=O)OCN2C(=O)c3ccccc3C2=O)cc1 | 8.38% |
| COc1ccc(/C=N/N(CCC(=O)NC(C)(C)C)C2=NS(=O)(=O)c3ccccc32)cc1 | 3.93% |
| COc1ccc2ccccc2c1-c1csc(N)n1 | 18.3% |
| COc1cccc(NC(=O)c2ccc3c(c2)OCO3)c1 | 15.3% |
| COc1ccc(CN(C)C(=O)c2cc(S(=O)(=O)N3CCOCC3)ccc2N2CCCC2)cc1 | -9.69% |
| COc1ccc(C(C(=O)NC2CCCC2)N(C(=O)c2snc(-c3ccc(F)cc3)c2N)c2ccc(F)cc2)cc1 (stereo not shown) | 6.52% |

| SMILES | hERG current change (%, negative = inhibition) at 1uM |
| --- | --- |
| CCOc1cc(C)nc(N2CCCC(C(=O)NCc3ccccc3F)C2)n1 (stereo not shown) | 6.07% |
| CCN1CCN(S(=O)(=O)c2ccc(C)c([N+](=O)[O-])c2)CC1 | 5.83% |
| CC(=O)c1cccc(NC(=O)C2CCCN2S(=O)(=O)c2cccc3nsnc23)c1 (stereo not shown) | 5.22% |
| Br.COc1ccc(C2CC(c3cccs3)=NN2c2nc(-c3ccccc3)cs2)cc1OC (stereo not shown) | 8.96% |
| C=CCNC(=O)c1cccc(C(F)(F)F)c1 | 17.6% |
| O=C(CC(Cc1ccccc1)C(=O)O)Nc1ccccc1 (stereo not shown) | 20.6% |
| Cn1c(=O)c2c(nc(NCc3ccc4c(c3)OCO4)n2Cc2ccccc2Cl)n(C)c1=O | 5.55% |
| CCCCC(=NCCc1c(C)[nH]c2ccccc12)C1=C(O)CC(c2ccccc2)CC1=O (stereo not shown) | 7.1% |
| O=C(c1ccc(F)cc1)C1CCN(S(=O)(=O)c2ccccc2)CC1 | 5.11% |
| COc1cc(NC(=O)CCc2nnc3ccc(N4CCN(c5cccc(OC)c5)CC4)nn23)cc(OC)c1 | 18% |
| O=C(NCc1cccnc1)C1CC(c2ccccc2O)=NO1 (stereo not shown) | 10.3% |
| Cc1ccc(O)c(C(CC(=O)NC2CCCCC2)c2ccccc2)c1 (stereo not shown) | 14.6% |
| O=C(Cn1cnc([N+](=O)[O-])c1)c1ccc(Cl)cc1 | 5.05% |
| O=C(N/N=C\c1ccc(Br)o1)C1COc2ccccc2O1 (stereo not shown) | 4.24% |
| CCc1nc(N2CCN(C(C)=O)CC2)c(C#N)c2c1COC(C)(C)C2 | 13.4% |
| COc1cccc(-n2nc(-c3ccnn3-c3cccc(Cl)c3)c(=O)n(C)c2=O)c1 | 5.93% |
| CCC(Sc1nc(C)cc(C)n1)C(=O)Nc1ccc(S(N)(=O)=O)cc1 (stereo not shown) | 6.73% |
| Cc1ccc(NC(=O)Cc2ccc([N+](=O)[O-])cc2)c(Br)c1 | 5.32% |
| O=C(NCCCN1CCOCC1)c1cc(-c2ccccc2)nc2ccccc12 | 1.74% |
| COc1ccc(/C=C/c2c([N+](=O)[O-])c(=O)n(C)c(=O)n2C)cc1 | 2.78% |
| C/C=C/c1ccc(OCCNCc2ccccc2)c(OC)c1.O=C(O)C(=O)O | 4.38% |
